Experimental data as given in article PMC6919601, “Identification of Plasmodium dipeptidyl aminopeptidase allosteric inhibitors by high throughput screening” (PLoS ONE, 2019).
About 230 (0.21%) of roughly 110,000 compounds showed an effect of 50% or more. This is one part of the list. Where a SMILES comes first, the peptide text is derived from it. The star is where a group is joined. Boc = CC(C)(C)OC(=O)*

Target: DPAP1 (Plasmodium falciparum, UniProt Q8IIJ9)
Experiment: primary screen, percent inhibition; read by cleavage of a fluorogenic dipeptide substrate; higher = more effect of the substance
Design: species or system P. falciparum D10 trophozoite lysates; single well
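Note: 30 min substrate incubation versus DMSO and 10 µM JCP410 controls.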

DPAP1, sequence (Q8IIJ9 whole entry, looked up): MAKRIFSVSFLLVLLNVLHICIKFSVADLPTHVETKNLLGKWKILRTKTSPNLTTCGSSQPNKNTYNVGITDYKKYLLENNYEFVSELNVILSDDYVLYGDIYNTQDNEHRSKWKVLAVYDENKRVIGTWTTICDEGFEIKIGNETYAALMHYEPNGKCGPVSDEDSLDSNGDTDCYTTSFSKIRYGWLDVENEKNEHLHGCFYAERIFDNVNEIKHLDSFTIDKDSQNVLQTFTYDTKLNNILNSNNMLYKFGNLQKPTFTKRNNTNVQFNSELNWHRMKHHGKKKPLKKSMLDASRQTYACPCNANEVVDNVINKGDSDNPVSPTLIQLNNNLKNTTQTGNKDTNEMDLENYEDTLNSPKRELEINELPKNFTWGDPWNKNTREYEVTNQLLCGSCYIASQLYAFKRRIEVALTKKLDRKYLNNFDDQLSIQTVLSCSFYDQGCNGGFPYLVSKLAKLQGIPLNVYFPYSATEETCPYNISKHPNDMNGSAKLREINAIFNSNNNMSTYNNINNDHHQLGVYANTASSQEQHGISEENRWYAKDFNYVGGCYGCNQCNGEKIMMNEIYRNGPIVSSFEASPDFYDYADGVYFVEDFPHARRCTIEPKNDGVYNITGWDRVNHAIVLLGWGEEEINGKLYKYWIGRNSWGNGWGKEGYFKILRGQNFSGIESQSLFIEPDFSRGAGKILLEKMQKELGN

SMILES	% Inhibition @ 10 uM [%]
Cc1ccc(NC(=O)COc2ccccc2C)cc1C	1.59
Cc1cc(C)c2c(n1)SCC(=O)N2CC(=O)NCCCOC(C)C	-2.37
O=C(CSc1nc2c(c(=O)n1CCc1ccccc1)SCC2)N1CCOCC1	0.0147
C#CC(CO)NCc1ccccc1 (stereo not drawn)	-1.76
CC(C)(C)OC(=O)N1CCCC1C(=O)NC(Cc1ccccc1)C(=O)O (stereo not drawn) (Boc-Pro-Phe-OH; configuration not given here)	0.275
C=CCSc1nc(SCC=C)c2cnc(N3CCN(C)CC3)nc2n1	0.751
COc1ccc(CN2CC(C(=O)NCc3ccccc3Cl)CC2=O)cc1 (stereo not drawn)	-1.79
Cc1ccccc1NC(=O)CN1C(=O)N/C(=C\c2cccn2-c2cccc(C(=O)O)c2)C1=O	5.03
COc1ccccc1-c1cc2nc(C)c(CCC(=O)N3CCCC3)c(C)n2n1	2.93
CCOCCCNC(=O)C(Cc1ccccc1)NS(=O)(=O)c1cccc2nsnc12 (stereo not drawn)	-3.23
CCCN1C/C(=C\c2ccc(F)cc2)C(=O)/C(=C/c2ccc(F)cc2)C1	1.63
Cc1ccccc1-c1nnc2n1C(C)(C)Cc1ccccc1-2	-0.267
COc1ccc(C(=O)N2CCC3(CC2)N=C(c2ccc(C)c(C)c2)C(=O)N3)cc1	4.44
O=C(Nc1cccc(C(=O)Nc2ccccc2Cl)c1)c1ccc([N+](=O)[O-])cc1	-0.268
Cc1ccc(S(=O)(=O)N(CC(=O)NC2CCCC2)c2ccc(Br)cc2)cc1	-5.88
Cc1ccc(OC(C)C(=O)Nc2cc(C)ccc2C)cc1 (stereo not drawn)	-2.19
CCOC(=O)C1=C(NC(=O)c2ccc(C)cc2)S/C(=C\c2ccc(OCC(=O)O)cc2)C1=O	6.28
COc1ccc(CCCC(=O)Nc2cccc(Br)c2)cc1	-6.94
CCOC(=O)C1CCCN(CC2=CC[C@H]3C[C@@H]2C3(C)C)C1 (stereo partly drawn)	1.62
Cc1ccc(-n2nnc(-c3nsc(NC(=O)c4ccccc4Cl)n3)c2C)cc1	-1.71
O=C1c2ccccc2-c2c1ccc[n+]2[O-]	-5.35
Cc1ccc2c(c1)-c1onc(C(=O)N3CCN(c4ccccn4)CC3)c1CO2	3.31
COc1cc(C2C(C#N)=C(N)OC3=C2C(=O)CC(C)(C)C3)ccc1OCc1cccc(F)c1 (stereo not drawn)	-7.64
Cc1ccccc1C(=O)Nc1c(C(=O)N(CCN(C)C)Cc2ccco2)oc2ccccc12	-2.35
CC(=O)c1ccc(NC(=O)CCCC(=O)Nc2ccc(C(C)=O)cc2)cc1	0.983
O=C(NCc1ccccc1)C(O)(c1ccccc1)c1ccccc1	2.6

SMILES	% Inhibition @ 10 uM [%]
Cn1cccc1Cc1nnc(SCC(=O)NC2CCCC2)n1C	0.809
C=C(C)CN(CC)Cc1ccccc1O	-0.0494
O=C(COCc1cc(-c2ccc3c(c2)OCO3)on1)Nc1cccnc1Cl	8.8
Nc1ccc(S(=O)(=O)Nc2ccc(Oc3ccccc3)cc2)cc1	-2.03
Cc1ccc(C)n1Cc1ccc(C(=O)O)cc1	-2.26
Cc1cc2nc3c(nc2cc1C)C1(C(=O)O)CCC3(C)C1(C)C (stereo not drawn)	0.83
O=C1c2ccccc2C(=O)N1CCCOc1ccccc1[N+](=O)[O-]	6.43
COc1ccc(CNS(=O)(=O)c2ccc(-n3cccn3)cc2)cc1	-6.67
c1cc(CN2CCOCC2)ccc1CN1CCOCC1	-0.0267
Cc1nc(N2CCN(c3ncccn3)CC2)c2c3c(sc2n1)CCCC3	-7.28
O=C(NCCc1ccc(Cl)cc1)c1ccc(Cn2c(=O)[nH]c3ccsc3c2=O)cc1	-3.27
CCC1CCC(=O)N2CCc3c([nH]c4ccccc34)C12 (stereo not drawn)	-8.58
CN(Cc1ccccc1)C(=O)c1cc(-c2ccc(Cl)c(Cl)c2)on1	-1.21
C/C=C(\C)CN1CCCC(C(N)=O)C1 (stereo not drawn)	4.9
Cc1ccc2cc(C)c(Nc3ccc(Cl)cc3)nc2c1	-5.23
CCOC(=O)N1CCN(c2ccc([N+](=O)[O-])cc2F)CC1	2.05
CCSc1nc2c(c(=O)n1C)C1(CCCCC1)Cc1ccccc1-2	-2.44
CC1(C)CC2=Nc3nc(N)nc(O)c3C(c3ccc(F)cc3)C2=C(O)C1 (stereo not drawn)	2.31
CNC(=O)N1c2ccccc2C=Cc2ccccc21	-5.04
Cc1cc2ncn(CCOc3ccc(Cl)cc3)c2cc1C	-4.07
CS(=O)(=O)N(CC(=O)Nc1cc(C(F)(F)F)ccc1Cl)c1ccc(Br)cc1	-2.29
CC1=C(C(=O)OCc2ccc(C)cc2)C(c2ccc(Cl)cc2Cl)CC(=O)N1 (stereo not drawn)	-4.81
CC(=O)c1cc2cc(F)ccc2oc1=O	1.02
CC(C)Nc1oc(Cc2cccc3ccccc23)nc1C#N	-4.67
CN(CCNC(=O)CN1N=C(c2ccccc2)CCC1=O)Cc1ccccc1	3.79
O=C(NCCCc1ccccc1)c1cc(S(=O)(=O)N2CCCCC2)c[nH]1	-4.07

SMILES	% Inhibition @ 10 uM [%]
CCNS(=O)(=O)c1cccnc1N1CCN(CCO)CC1	-3.92
COc1ccc2ccccc2c1/C=C1/N=C(c2ccccc2F)OC1=O	2.81
CCCCn1c2ccccc2n2c(C(C)=O)c(-c3ccccc3)nc12	0.00773
COc1ccccc1OCC(O)CN1C(=O)NC(C)(C)C1=O (stereo not drawn)	3.59
CC(=O)N1c2ccccc2N=C2CC(C)(C)CC(O)=C2C1c1ccc(C#N)cc1 (stereo not drawn)	5.9
CCOc1cccc2c1Oc1nc(-c3cc(Cl)ccc3O)nc(O)c1C2	-2.84
CCCCC1CCC(c2noc(-c3ccc([N+](=O)[O-])cc3)n2)CC1 (stereo not drawn)	-1.96
CC(C)c1ccc(N2C(=O)NC(=O)/C(=C/c3ccco3)C2=O)cc1	-0.274
COc1ccc(-n2cnc3cc(C(=O)NCCN4CCOCC4)ccc32)cc1	-2.17
CC1(C)Cc2ccccc2-c2nnc(-c3ccc4ccccc4n3)n21	1.48
C=CCNC(=O)C(=O)Nc1ccc(Cl)c(Cl)c1	1.37
CCCNC(=O)C1CCCN(Cc2nc(-c3ccc(Cl)cc3)oc2C)C1 (stereo not drawn)	-1.05
NS(=O)(=O)c1cc(C(=O)Nc2nc(-c3ccccc3)cs2)c(Cl)cc1Cl	10.6
COCC(=O)n1nc(-c2ccco2)nc1NCc1ccc(Cl)cc1	-3.24
CCN1CNC(=S)N(Cc2ccccc2)C1	-0.169
CCOC(=O)c1c(C=O)c2ccccc2n1CC	1.63
CCc1nonc1NC(=O)c1ccc(OCC(C)C)cc1	-3.49
O=C(NCc1ccccc1)/C(NC(=O)c1ccccc1)=C(/Sc1ccccn1)c1ccccc1	-0.183
CC(C)OCCCNC(=O)c1cn(C2CCCC2)c(=O)c2c1c1ccccc1n2C	0.163
Cc1nn(Cc2cccc3ccccc23)c(C)c1NC(=O)c1ccc(F)cc1	-0.67
Cc1ccc2nc(Cl)c(-n3nc(C)cc3C)nc2c1	6.83
O=C(Nc1ccccc1)c1csc2c1CCCC2	0.13
OC12OC34CCCCC3CC13CCCC2CC1CCCCC13O4 (stereo not drawn)	-6.17
CCCN(Cc1c(C)n(C)n(-c2ccccc2)c1=O)CC1CC1	-1.5
COc1ccc(CN(CCC2(Cc3ccccc3)CCOC(C)(C)C2)C(C)=O)cc1 (stereo not drawn)	14.2
CN(C)c1nc2nonc2nc1N	0.596

SMILES	% Inhibition @ 10 uM [%]
CCOc1cc(C2C3=C(O)CC(C)(C)CC3=NC3=C2C(=O)CC(C)(C)C3)ccc1OCC(=O)O (stereo not drawn)	-2.88
CNC(=O)C1Cc2ccccc2CN1S(=O)(=O)c1cccs1 (stereo not drawn)	6.05
Cc1cc2c(C)nc3c(Cl)cccc3c2o1	0.392
CCOc1ccccc1NC(=O)c1ccc(Cl)c(Cl)c1	2.98
N#Cc1ccc(Oc2ccc(NC(=O)c3ccc(Br)cc3)cc2)cc1	-5.33
O=C1CCCN1CCc1ccccc1	0.343
CCCOC1(C(F)(F)F)NC(=O)N(Cc2ccccn2)C1=O (stereo not drawn)	-3.33
COc1ccc(-n2ncc3c(SCC(=O)Nc4nc(C(C)(C)C)cs4)ncnc32)cc1	-3.08
COc1cccc(CNc2nc3c(-c4ccc(C)cc4)nnn3c3ccccc23)c1	15.6
Cc1c(CNCc2ccco2)c(C(=O)O)c(C)n1Cc1ccc(F)cc1	-5.49
CCCCC12CNCC(C)(CNC1)C2=O	-3.49
CCN(CC)CCCNc1nc2cc(OC)c(OC)cc2c2nc(-c3cccnc3)nn12	2.6
Nc1cc(O)nc(SCC(=O)Nc2nnc(-c3ccccc3)s2)n1	1.96
CCc1ccc(/C=C(/C#N)c2nc(-c3ccc(Cl)cc3)cs2)cc1	-3.04
CSc1nc(-c2ccco2)nn1S(=O)(=O)c1ccc(C)cc1	2.32
CCCCN(C)Cc1ccnc2ccccc12	-0.446
COc1ccc(C2CC(C(F)(F)F)n3ncc(C(=O)Nc4cc(Cl)ccc4O)c3N2)cc1 (stereo not drawn)	-10.5
CSCCCN(C)C1CCN(C)CC1	-2.95
O=C(c1sc2ccccc2c1Cl)N1CCc2ccccc21	-0.342
NC(=O)Cn1c(=O)n(Cc2ccc(C(=O)NCc3ccco3)cc2)c(=O)c2sccc21	-7.85
Cc1sc(NC(=O)c2ccccc2)c(C(=O)NC2CCCCC2)c1C	16
O=c1c(=O)n(Cc2cccc(C(F)(F)F)c2)ccn1Cc1ccccc1	-4.11
COc1cc(/C=C2/Sc3ccccc3C2=O)cc(Br)c1O	2.7
COc1ccc(-c2noc(CN(C(=O)c3c(OC)cccc3OC)C(C)C)n2)cc1	-0.942
